About 500 (0.14%) of roughly 370,000 compounds were called active. The shares of active, inactive and inconclusive entries below differ from those in the screen. Calls come from the whole dose curve; as a rule, active = well fitted activation curve with a large enough effect; inconclusive = small, poorly fitted or top-dose-only effect; inactive = no such curve, though single readings can be large or run the other way. No potency is given beside an inconclusive call; the fits are too rough.
Assay: qHTS of alpha-syn Inhibitors; note: nearly all actives have a fitted effect of over 65% in size; for growth rescue (activation): % of control where 0% means no effect
Conditions: Yeast expressing alpha-synuclein, BacTiter-Glo, 24 h; Potency: growth rescue unless noted; growth rescue (activation): at 46.1 µM (top of the series) unless noted
How it was run: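 Galactose-induced alpha-syn yeast (OD600=0.02, raffinose-pregrown) + pinned cpd, 24 hr, 30 deg C; growth by BacTiter-Glo luminescence. Growth restoration scores as activation.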
With `COc1cccc(-c2ccc(=O)n(CC(=O)NCCN3CCOCC3)n2)c1` the “growth rescue (activation)” value was inactive: -0.445%.
With `O=c1[nH]nc(CNc2ccc(O)cc2)c2ccccc12` the Potency was inconclusive [activator, single point].
With `CCC/C=C/c1ccc(CN2C(C)C(=O)N(Cc3cn(Cc4ccco4)nn3)CCS2(=O)=O)cc1` (stereo not given) the Potency was inconclusive [activator, single point].
In the case of `Cc1cccc(NC(=S)NNC(=O)c2csc3c2CCCC3)c1`, the Potency is reported as inconclusive [activator, single point].
For `CC(=O)Nc1cccn(Cc2c(Cl)cccc2Cl)c1=O`, the Potency was inconclusive [activator, single point].
In the case of `CNC(=S)N(CCc1c(C)[nH]c2ccc(C)cc12)Cc1ccco1`, the Potency is reported as inconclusive [activator, single point].
With `Cc1ccccc1-c1ccc(CN2C(C)C(=O)N(Cc3cn(Cc4ccco4)nn3)CCS2(=O)=O)cc1` (stereo not given) the Potency was inconclusive [activator, single point].
With `Cc1ccc(NC(=O)CN2C(=O)CC(C)Sc3ccccc32)c(C)c1` (stereo not given) the Potency was inconclusive [activator, single point].
With `COc1ccc(Cn2c(=O)sc3ccccc3c2=O)cc1` the Potency was inconclusive [activator, partial curve].
In the case of `Cc1ccc(-c2nc(=S)c3c(n2Cc2cccnc2)CC(C)(C)OC3)cc1`, the Potency is reported as inconclusive [activator, single point].
With `COc1cc(C)c(S(=O)(=O)NCc2ccc3c(c2)OCO3)cc1C` the Potency was inconclusive [activator, single point].
With `C=CCn1c(NCCOC)nc2c1c(=O)n(C)c(=O)n2C` the Potency was inconclusive [activator, single point].
In the case of `CCc1ccccc1NC(=O)CC1Sc2ccc(C(F)(F)F)cc2NC1=O` (stereo not given), the Potency is reported as inconclusive [activator, single point].
In the case of `CCN(C(=O)c1cc(S(=O)(=O)N2CCc3ccccc32)cn1C)c1ccccc1`, the Potency is reported as inconclusive [activator, single point].
With `COC(=O)c1sccc1NC(=O)C1CC(C)=C(C)CC1C(=O)O` (stereo not given) the Potency was inconclusive [activator, partial curve].
With `c1ccc(CN2CCC3(CCCc4ccccc43)CC2)cc1` the Potency was “inactive”.
In the case of `Cc1ccc(C)c(NS(=O)(=O)c2cc(C(=O)NCCSC3CCCCC3)ccc2C)c1`, the Potency is reported as inconclusive [activator, single point].
With `Cc1ccc(-c2ccc(/C=C/C(=O)c3ccccc3)o2)cc1` the Potency was inconclusive [activator, single point].
In the case of `O=C(NC(=S)Nc1ncc(Br)cc1Br)c1cncc(Br)c1`, the “growth rescue (activation)” value is reported as inactive: -7.4%.
With `CC1=Nc2cc(C(=O)NCCc3ccc(Cl)cc3)ccc2Sc2c(C)ccc(C)c21` the Potency was inconclusive [activator, single point].
With `CCOC(=O)c1c(NC(=O)CN2CCN(c3cccc(Cl)c3)CC2)sc(C)c1C` the Potency was inconclusive [activator, single point].
In the case of `O=C1Nc2cccc3c2N(CCC3)C2=C1CCC2`, the Potency is reported as inconclusive [activator, single point].
For `CN(C)C(=O)C1=NOC2(C1)C(=O)Nc1ccccc12` (stereo not given), the Potency was inconclusive [activator, single point].
For `O=C(C1CCC(CNc2nc(=S)[nH]c3ccccc23)CC1)N1CCN(c2ccccn2)CC1` (stereo not given), the Potency was inconclusive [activator, single point].
In the case of `COc1cc2nc(N3CCCN(C)CC3)nc(NC3CC3)c2cc1OC`, the “growth rescue (activation)” value is reported as inactive: -3.48%.
For `CCOc1ccc2nc(N/C(N)=N/S(C)(=O)=O)nc(C)c2c1`, the Potency was inconclusive [activator, single point].
In the case of `O=C(O)c1ccc(/C=C2\COc3ccccc3C2=O)cc1`, the Potency is reported as inconclusive [activator, partial curve].
For `CC(C)(C)NC(=O)CN(C(=O)Cn1nnc(-c2ccc(Cl)cc2)n1)C1CCN(Cc2ccccc2)CC1`, the Potency was inconclusive [activator, single point].
For `Nc1nc(SCC(=O)N2CCCCCC2)[nH]c(=O)c1NC(=O)c1ccco1`, the Potency was inconclusive [activator, single point].
In the case of `CCC1CCCCN1S(=O)(=O)c1ccc(C(=O)Nc2nnc(C3CC3)o2)cc1` (stereo not given), the Potency is reported as inconclusive [activator, single point].
In the case of `CCOC(=O)c1c(C)nc(C)c(C(=O)OCC)c1-c1cccnc1`, the “growth rescue (activation)” value is reported as inactive: 7.08%.
In the case of `COc1ccc(-n2ncc3c(N4CCc5ccccc54)ncnc32)cc1`, the Potency is reported as inconclusive [activator, single point].
In the case of `CCN(CCO)Cc1cc(=O)oc2cc3c(cc12)CCC3`, the “growth rescue (activation)” value is reported as inactive: -0.773%.
In the case of `COc1ccc(C=C2OC(=O)C(C(C)=O)=C2O)cc1`, the Potency is reported as inconclusive [activator, partial curve].
In the case of `CCOC(=O)c1cc(OC(=O)c2ccccc2)n(-c2ccccc2)n1`, the “growth rescue (activation)” value is reported as inactive: 3.24%.
In the case of `O=C1CC(c2cccc(Cl)c2)c2cc3c(cc2N1)CCC3` (stereo not given), the Potency is reported as active: 3.98 µM.
With `CCN(CC)CCCN(c1ccccc1)C1Cc2ccccc2C1` the “growth rescue (activation)” value was inactive: 2.05%.
With `COc1ccc2c(c1)c1nnc(SCC(=O)Nc3ccccc3F)nc1n2C` the “growth rescue (activation)” value was inactive: -2.21%.
In the case of `Cc1[nH]nc2c1C(=O)CC(C)(C)C2`, the “growth rescue (activation)” value is reported as inactive: 2.75%.
With `Cn1c(SCc2ccccc2F)nc2cccnc21` the Potency was inconclusive [activator, single point].
In the case of `CC(Oc1ccc(Cl)cc1)C(=O)Nc1cccc(S(=O)(=O)N2CCCC2)c1` (stereo not given), the “growth rescue (activation)” value is reported as inactive: -0.942%.
In the case of `O=C(O)c1cc2cccc([N+](=O)[O-])c2[nH]1`, the Potency is reported as “inactive”.
With `Cc1ccc(NS(=O)(=O)c2ccc(-c3cnc(C4CC4)o3)cc2)cc1` the Potency was inconclusive [activator, single point].
For `C[C@@]12C(=O)Nc3ccc(Cl)cc3C(=O)N1[C@H]1c3cc(Br)ccc3OC[C@@H]1[C@@H]2c1ccccc1`, the “growth rescue (activation)” value was inactive: 10.4%.
In the case of `NC(=O)NCCN1CCN(c2ncc(C(F)(F)F)cc2Cl)CC1`, the Potency is reported as inconclusive [activator, single point].

Source: PubChem BioAssay AID652106 (National Center for Advancing Translational Sciences (NCATS), 2013)
Potency is the fitted concentration of half-maximal effect; tags give direction and shape of the fitted curve.
